{"source": "paper PMC12136788", "binders": {"B1": {"name": "ENSG00000124766:be:win_1851|3pUTR|ENSG00000124766|bound_else_gene|NA|bound_elsewhere_windowed (ssRNA)", "RNA": "GGGAGUUCUACAGUCCGACGAUCAGAGACUUGAAGGAGUCUCCCCCUUCCUGCAUCACCACCUUGGUUUUGUUUUAUUUUGCUUCUUGGUCAAGAAAGGAGGGGAGAACCCAGCGCACCCCUCCCCCCCUUUUUUUAAACGCGCAACAGAGGAUUGAGCAUCA"}, "B2": {"name": "chr1:66363429:66363538:+|CDS|ENSG00000184588|unk|total|mutant (ssRNA)", "RNA": "GGGAGUUCUACAGUCCGACGAUCAGACCUCCUAAAGACAUUCAGAAUCUCAUCUGACACAUUUAUAACCUACAUGAUGACUUCCGAAGACCAUUACCAUUCUGACGUGGCAUAUCACAACAGCCUGCACGCUGCUGAUGCCGCCAACAGAGGAUUGAGCAUCA"}, "B3": {"name": "chrX:56565067:56565173:+|CDS|ENSG00000188021|unk|FALSE|unique (ssRNA)", "RNA": "GGGAGUUCUACAGUCCGACGAUCAGAAGCAUGAUGCAGUCGCUGAGCCAGAAUCCAGAUUUGGCUGCACAGAUGAUGCUGAAUAGCCCGCUGUUUACUGCAAAUCCUCAGCUGCAGGAGCAGAUGCGGCCACAGCUCCCAGCCCAACAGAGGAUUGAGCAUCA"}, "B4": {"name": "chr2:96252317:96252350:-|3pUTR|ENSG00000135956|msi1_unk|total|mutant (ssRNA)", "RNA": "GGGAGUUCUACAGUCCGACGAUCGUGUCCCCUGCUGAGCUGAAAAGGAAAUGGAUUCCAAUCUCUUCCAACCUUUAAGGUGACCGACCGUUUGAGCAAGACUGGAGAAUGGACAACACUAUGAAGCUGUGGCCCGAAAGGGACCAACAGAGGAUUGAGCAUCA"}, "B5": {"name": "chr14:55188946:55189174:-|CDS|ENSG00000126787|unk|FALSE|unique (ssRNA)", "RNA": "GGGAGUUCUACAGUCCGACGAUCAUUGCUCAUAGGAAAUCACUGUCUCAGAAAGAAAAUAGACAUAAGGAAUACGAACGAAAUAGACACUUUGGUUUGAAAGAUGUAAACAUUCCAACCUUGGAAGGUAGAAUUCUUGUUGAACAACAGAGGAUUGAGCAUCA"}, "B6": {"name": "chr6:43186014:43186115:+|CDS|ENSG00000112659|msi1|FALSE|unique (ssRNA)", "RNA": "GGGAGUUCUACAGUCCGACGAUCCUGCUUUUCUCCUUGGUGAAGCGCUACCUUUGUGUCACGUCCCUCCUGGAUCAGCUGAAUAGCAGUCCAGAGCUGGGAGCUGGAGACCAAAGCUCCCCAUGUGCCACAAGAGAGAAAAGCCAACAGAGGAUUGAGCAUCA"}, "B7": {"name": "chr22:36489384:36489485:-|3pUTR|ENSG00000100350|msi1|total|mutant (ssRNA)", "RNA": "GGGAGUUCUACAGUCCGACGAUCGUGUCACUUGCCACACACUGCCUCAACCUCCCCGCCCCAUUUUCAGCAGGGUUUGGGCUCCGCUACAGAGCCCAAGAGGGUCAGCCCUGCUUAUCAUCACCGGCCCAGCAGGCUGAUCUCCAACAGAGGAUUGAGCAUCA"}, "B8": {"name": "chrX:12823584:12823685:+|3pUTR|ENSG00000101911|unk|FALSE|unique (ssRNA)", "RNA": "GGGAGUUCUACAGUCCGACGAUCUGACUUAAAGGUAAUCAUUUCAGCUAAGAUUAAAUUUAAAGCCUAAGAAUGUAUAGAGCUAGUUUUAAAAUAAUGAUCUCAGAUUUUUAAAAAGGAUAUAGGAACCUGCAUUGUCAUUCUCAACAGAGGAUUGAGCAUCA"}, "B9": {"name": "chr11:46743636:46743700:-|3pUTR|ENSG00000175216|msi1_unk|total|mutant (ssRNA)", "RNA": "GGGAGUUCUACAGUCCGACGAUCUUGUAAAAUUGUCCUAAUCUUUCCCCGCUUUUUAACCGUUAAUAUCCGAAACUCUUUAACCGUUUUCCUUUCAGUUUGUGAGCUCUUCUCUGUCGCCCUGAAGGGUCACUGUAUUCUGUACAACAGAGGAUUGAGCAUCA"}, "B10": {"name": "chr13:52475664:52475769:+|3pUTR|ENSG00000136108|msi1|total|mutant (ssRNA)", "RNA": "GGGAGUUCUACAGUCCGACGAUCGCGUCCCUUGGACUGCCUGUUGAUUGAUGGAAAGUGUCUGCACUGACACUUUUCGUCAGCCGUCUGCCGUUUCGUGGCCUCUUUUGAUUAUAACUGGGGUCACCAAGAAGGUUUACUUAACAACAGAGGAUUGAGCAUCA"}, "B11": {"name": "chr12:122271799:122271900:-|3pUTR|ENSG00000130779|msi1|total|mutant (ssRNA)", "RNA": "GGGAGUUCUACAGUCCGACGAUCGUAUAAAACACCUAAAUAACCAAUCUACAAUCUCCCUUCACAAGUUUUUUUACUGUUUUCCGAUGAAUGUACGAUGAGAAAUUCAACGUUAAUAAUUCUGGAUUUUCUUAUCACAAAAAACAACAGAGGAUUGAGCAUCA"}, "B12": {"name": "chr1:228098150:228098251:+|3pUTR|ENSG00000143761|msi1_unk|FALSE|overlapping (ssRNA)", "RNA": "GGGAGUUCUACAGUCCGACGAUCGCACCGUGCUGUAAAUGUGGCAGACGCAGCCUGCGGCCAGGCUUUUUAUUUAAUGUAAAUAGUUUUUGUUUCCAAUGAGGCAGUUUCUGGUACUCCUAUGCAAUAUUACUCAGCUUUUUUCAACAGAGGAUUGAGCAUCA"}, "B13": {"name": "ENSG00000070961:be:win_1151|CDS|ENSG00000070961|bound_else_gene|NA|bound_elsewhere_windowed (ssRNA)", "RNA": "GGGAGUUCUACAGUCCGACGAUCCAGUUAUCAUUCUAGUAUUAUAUUUUGUCAUUGACACCUUCUGGGUUCAGAAAAGACCAUGGCUUGCUGAGUGCACACCAAUUUAUAUACAAUACUUUGUGAAGUUCUUCAUUAUUGGAGCAACAGAGGAUUGAGCAUCA"}, "B14": {"name": "chr8:123014585:123014686:-|3pUTR|ENSG00000136986|msi1|FALSE|unique (ssRNA)", "RNA": "GGGAGUUCUACAGUCCGACGAUCGCAGCUAACAUGGGUUAGGUUUAAACCAUGGGGGAUGCAACCCCUUUGCGUUUCAUAUGUAGGCCUACUGGCUUUGUGUAGCUGGAGUAGUUGGGUUGCUUUGUGUUAGGAGGAUCCAGACAACAGAGGAUUGAGCAUCA"}, "B15": {"name": "ENSG00000107863:be:win_5201|CDS|ENSG00000107863|bound_else_gene|NA|bound_elsewhere_windowed (ssRNA)", "RNA": "GGGAGUUCUACAGUCCGACGAUCUUGAUGUUAUGAAAAAAGGAAAGUCAACUGGGAGUUUACUGACACCCACCAGAGGCGAAUCCGAAAAACAGGAACCCACAUGGAAAACGAAAAUAGCAGAUCGGUUAAAACUGAGACCCACAACAGAGGAUUGAGCAUCA"}, "B16": {"name": "chr15:65058426:65058617:-|CDS|ENSG00000103710|control|control|control (ssRNA)", "RNA": "GGGAGUUCUACAGUCCGACGAUCCUGAACUGGGCCCAUGCCUUCCUGGUGGUGUACAGCGUCGACAGCCGCCAGAGCUUUGAUAGCAGCAGCAGCUACCUGGAGCUGCUUGCCUUGCACGCGAAGGAGACACAGCGCAGCAUCCAACAGAGGAUUGAGCAUCA"}, "B17": {"name": "ENSG00000198589:be:win_6301|CDS|ENSG00000198589|bound_else_gene|NA|bound_elsewhere_windowed (ssRNA)", "RNA": "GGGAGUUCUACAGUCCGACGAUCGAUCCUAACUUCAAAAAAAUCGACCCCAAGAUCUUGGCAUAUACAGAAGGGCUGCAUGGAAAAUGGCUGUUCACAGAGAUACGAUCAAUCUUUUCUCGUCGUUAUCUUUUGCAAAAUACACAACAGAGGAUUGAGCAUCA"}, "B18": {"name": "chr22:41117408:41117517:+|CDS|ENSG00000100393|unk|FALSE|unique (ssRNA)", "RNA": "GGGAGUUCUACAGUCCGACGAUCCCAGGUCAAGUCAUGGCCAGCCAGGCCCAACAGAGCAGUCCUGGAUUAGGUUUGAUAAAUAGCAUGGUCAAAAGCCCAAUGACACAGGCAGGCUUGACUUCUCCCAACAUGGGGAUGGGCCAACAGAGGAUUGAGCAUCA"}, "B19": {"name": "chr11:118657315:118658441:-|three_prime_utr|ENSG00000118094|control|control|control (ssRNA)", "RNA": "GGGAGUUCUACAGUCCGACGAUCCCUCCCAGCCUGUCCUCAGAGCGAAGUGGAGGGCAGGGUCACGACCUGGAGGUCAUGGGUAGGGGCCUAGCUCCCUCCUGGAACCUUGAAUAGGGUGGAAAUCCUGCUCUGGAGGGAAGACAACAGAGGAUUGAGCAUCA"}, "B20": {"name": "chr8:97725557:97725573:+|3pUTR|ENSG00000147649|msi1_unk|FALSE|overlapping (ssRNA)", "RNA": "GGGAGUUCUACAGUCCGACGAUCGUUGACUUUAAAAAUGAAAUCAUUCACAAACUUUUGGUAUAUGAUGGAGAAUGAAAAACUAGAGUCAGACAGCUUUAAUUGACAUUGUCAACACCUCCAGUUAUCAGGAAUACAUUUUUUCAACAGAGGAUUGAGCAUCA"}, "B21": {"name": "chr15:43456694:43456846:-|CDS|ENSG00000067369|unk|total|mutant (ssRNA)", "RNA": "GGGAGUUCUACAGUCCGACGAUCAGACACCAGGGAUGACAUCCGUAUUUCCGCCACUGGUUGCAAGGGCAGAGAAGAAACGGCCGCAGAAGAUGUUUGUAUUGAUCUCACUUGUGAUUCGGGGAGUCAGGCAGUUCCGUCACCCAACAGAGGAUUGAGCAUCA"}, "B22": {"name": "ENSG00000070961:be:win_4401|3pUTR|ENSG00000070961|bound_else_gene|NA|bound_elsewhere_windowed (ssRNA)", "RNA": "GGGAGUUCUACAGUCCGACGAUCGUUAUGACAUCUGUCCUAAUUAGUUUCUUAAAUACAUUUACUACUUAAUGGUUUUGAAGCAACUGUUUAAUUUUUAAAAUUUUUGAAAACUUGCUAAUAACCUUUUGUUCAGAAUUUAGUCAACAGAGGAUUGAGCAUCA"}}, "note": "The list shows a part of the results.", "data": [{"target": "MSI1 full-length (mouse, UniProt Q61474 1-362)", "sequence (Q61474 whole entry)": "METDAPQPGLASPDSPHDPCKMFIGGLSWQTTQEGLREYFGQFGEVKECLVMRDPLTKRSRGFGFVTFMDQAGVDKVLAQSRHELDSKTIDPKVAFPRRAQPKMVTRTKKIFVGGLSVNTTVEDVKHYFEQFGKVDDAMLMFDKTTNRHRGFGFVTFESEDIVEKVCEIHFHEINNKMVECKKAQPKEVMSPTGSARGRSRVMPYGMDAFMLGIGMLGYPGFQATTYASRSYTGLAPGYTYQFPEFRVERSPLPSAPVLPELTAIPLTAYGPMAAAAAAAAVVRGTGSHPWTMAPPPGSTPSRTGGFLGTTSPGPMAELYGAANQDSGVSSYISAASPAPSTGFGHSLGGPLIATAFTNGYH", "test": "nsRBNS (natural sequence RNA bind-n-seq); RBNS binding buffer (assumed for nsRBNS): 25 mM Tris pH 7.5, 150 mM KCl, 3 mM MgCl2, 0.01% Triton X-100, 500 ug/ml BSA, 20 U/ml SUPERase-In, 4 C; UNK is unkempt and MSI1 is Musashi-1; names of the RNAs are library labels; protein concentration not given here; high values mean tight binding", "units": {"binding signal": "enrichment R"}, "values": [{"binder": "B1", "binding signal": 0.505}, {"binder": "B2", "binding signal": 0.448}, {"binder": "B3", "binding signal": 0.328}, {"binder": "B4", "binding signal": 0.439}, {"binder": "B5", "binding signal": 1.76}, {"binder": "B6", "binding signal": 0.311}, {"binder": "B7", "binding signal": 0.593}, {"binder": "B8", "binding signal": 9.66}, {"binder": "B9", "binding signal": 0.866}, {"binder": "B10", "binding signal": 0.245}, {"binder": "B11", "binding signal": 0.881}, {"binder": "B12", "binding signal": 1.63}, {"binder": "B13", "binding signal": 8.08}, {"binder": "B14", "binding signal": 0.688}, {"binder": "B15", "binding signal": 0.386}, {"binder": "B16", "binding signal": 0.377}, {"binder": "B17", "binding signal": 0.245}, {"binder": "B18", "binding signal": 1.17}, {"binder": "B19", "binding signal": 0.327}, {"binder": "B20", "binding signal": 0.544}, {"binder": "B21", "binding signal": 0.515}, {"binder": "B22", "binding signal": 3.8}]}]}
